Single values of this set are uncertain.
assay: amyloid nucleation score relative to library mode (yeast Sup35 reporter selection) (log enrichment difference); higher = more amyloid nucleation; sequences are the first 22 residues of the Bri2 peptide extended by up to 12 random residues; settings: random library (experiment): 1;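 active = nucleation score significantly above 0 at FDR 0.05; inactive = not significantly above 0 or absent from output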
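Also: [psi-pin-] Saccharomyces cerevisiae expressing SupN fusions, induced by 100 µM Cu2SO4, selected 7 d at 30 °C without adenine and uracil, scored by deep sequencing of output versus input.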

Sequence	amyloid nucleation score
EASNCFAIRHFENKFAVETLICPRTCSEGLVRL	inactive
EASNCFAIRHFENKFAVETLICPRVTKVDHCAKR	inactive
EASNCFAIRHFENKFAVETLICPRWFYIHGMSMC	0
EASNCFAIRHFENKFAVETLICPRYGSVALEDKE	-0.0935
EASNCFAIRHFENKFAVETLICPSASEMYSGFAM	0.0198
EASNCFAIRHFENKFAVETLICPSEIKEVQPGC	inactive
EASNCFAIRHFENKFAVETLICPSFNIIYLVV	5.86
EASNCFAIRHFENKFAVETLICPSFRQHMCVHGT	2.93
EASNCFAIRHFENKFAVETLICPSGAMREDVELY	-0.551
EASNCFAIRHFENKFAVETLICPSGLRDRFCSFK	inactive
EASNCFAIRHFENKFAVETLICPSIGKWHVGPWG	0.0198
EASNCFAIRHFENKFAVETLICPSKS	inactive
EASNCFAIRHFENKFAVETLICPSLLVVNAFVSA	5.76
EASNCFAIRHFENKFAVETLICPSMCRVRSDRRK	inactive
EASNCFAIRHFENKFAVETLICPSRRSRFWSCLF	inactive
EASNCFAIRHFENKFAVETLICPSRSGMLMVFVG	inactive
EASNCFAIRHFENKFAVETLICPSRYWPWGTGWT	inactive
EASNCFAIRHFENKFAVETLICPSSKRTPWCVGT	-0.0572
EASNCFAIRHFENKFAVETLICPSSMVMWMRMTR	inactive
EASNCFAIRHFENKFAVETLICPSSQSQYGFIRG	inactive
EASNCFAIRHFENKFAVETLICPSTWADTALPWG	inactive
EASNCFAIRHFENKFAVETLICPSVGVRPTTSRG	inactive
EASNCFAIRHFENKFAVETLICPSVKTVGGNNEV	4.14
EASNCFAIRHFENKFAVETLICPSVTITSTVNLR	6.96
EASNCFAIRHFENKFAVETLICPSWQY	inactive
EASNCFAIRHFENKFAVETLICPTAFSNLSSVVV	inactive

Sequence	amyloid nucleation score
EASNCFAIRHFENKFAVETLICPTCSYMYNQAYH	4.21
EASNCFAIRHFENKFAVETLICPTDSRSAGMGCW	inactive
EASNCFAIRHFENKFAVETLICPTEARVLVTAAV	inactive
EASNCFAIRHFENKFAVETLICPTEIYLAFVPGA	5.67
EASNCFAIRHFENKFAVETLICPTGGIK	1.87
EASNCFAIRHFENKFAVETLICPTSHGSTVSVCG	inactive
EASNCFAIRHFENKFAVETLICPTVRRSMSSSGS	inactive
EASNCFAIRHFENKFAVETLICPV	-0.646
EASNCFAIRHFENKFAVETLICPVADAG	inactive
EASNCFAIRHFENKFAVETLICPVAGERPSAIGR	inactive
EASNCFAIRHFENKFAVETLICPVAHVVRMLRDR	inactive
EASNCFAIRHFENKFAVETLICPVARRWTVEAGA	inactive
EASNCFAIRHFENKFAVETLICPVCSRVSWVRRA	inactive
EASNCFAIRHFENKFAVETLICPVDRCPSRLDMA	2.78
EASNCFAIRHFENKFAVETLICPVEDKMEVRRRG	inactive
EASNCFAIRHFENKFAVETLICPVEGRNVWCCWA	7.31
EASNCFAIRHFENKFAVETLICPVEHRTE	inactive
EASNCFAIRHFENKFAVETLICPVETGCIVGLRD	inactive
EASNCFAIRHFENKFAVETLICPVGKARIPVFAV	inactive
EASNCFAIRHFENKFAVETLICPVKSGRVQRVGA	inactive
EASNCFAIRHFENKFAVETLICPVKVNMEVSHRC	2.73
EASNCFAIRHFENKFAVETLICPVLNW	inactive
EASNCFAIRHFENKFAVETLICPVLQGGA	inactive
EASNCFAIRHFENKFAVETLICPVMSVQGVRALA	inactive
EASNCFAIRHFENKFAVETLICPVNCTILSGVCR	5.72
EASNCFAIRHFENKFAVETLICPVNDNAVSFTSR	inactive

same assay, conditions: random library (experiment): 2

Sequence	amyloid nucleation score
EASNCFAIRHFENKFAVETLICPRWC	inactive
EASNCFAIRHFENKFAVETLICPRYRSGEYSRTT	inactive
EASNCFAIRHFENKFAVETLICPSASGCLDFNPL	inactive
EASNCFAIRHFENKFAVETLICPSCRIVNLDSFH	5.24
EASNCFAIRHFENKFAVETLICPSD	inactive
EASNCFAIRHFENKFAVETLICPSF	inactive
EASNCFAIRHFENKFAVETLICPSFCIEYWCYYM	inactive
EASNCFAIRHFENKFAVETLICPSFYWCHSLWLG	inactive
EASNCFAIRHFENKFAVETLICPSGLLVLCIFGS	0.644
EASNCFAIRHFENKFAVETLICPSKFEACHGLYL	inactive
EASNCFAIRHFENKFAVETLICPSKV	inactive
EASNCFAIRHFENKFAVETLICPSLSEGQWTACV	inactive
EASNCFAIRHFENKFAVETLICPSNARSRSGCVL	inactive
EASNCFAIRHFENKFAVETLICPSVSLNAIGFCF	2.53
EASNCFAIRHFENKFAVETLICPSVWCRRRVVYE	inactive
EASNCFAIRHFENKFAVETLICPSYAVR	inactive

Sequence	amyloid nucleation score
EASNCFAIRHFENKFAVETLICPTFVR	-0.779
EASNCFAIRHFENKFAVETLICPTLGPGRLVFFI	0
EASNCFAIRHFENKFAVETLICPTMCALREVACR	inactive
EASNCFAIRHFENKFAVETLICPTMGENTVDVRR	inactive
EASNCFAIRHFENKFAVETLICPTSRWRMCCGWL	inactive
EASNCFAIRHFENKFAVETLICPTWLMW	4.97
EASNCFAIRHFENKFAVETLICPTYKRKGKCSIG	inactive
EASNCFAIRHFENKFAVETLICPVCLGLWSGSWD	6.14
EASNCFAIRHFENKFAVETLICPVFRDECQNCIR	6.19
EASNCFAIRHFENKFAVETLICPVGIFYVLYRVR	inactive
EASNCFAIRHFENKFAVETLICPVGSDCFVFRCL	2.64
EASNCFAIRHFENKFAVETLICPVITLSHLYLNL	6.19
EASNCFAIRHFENKFAVETLICPVKFNVVNDWHV	5.81
EASNCFAIRHFENKFAVETLICPVLDSCMCSGGV	6.31
EASNCFAIRHFENKFAVETLICPVLKDVFSNKMA	inactive

same assay, conditions: random library (experiment): 3

Sequence	amyloid nucleation score
EASNCFAIRHFENKFAVETLICPRYPAGRCVFWA	inactive
EASNCFAIRHFENKFAVETLICPSEECD	inactive
EASNCFAIRHFENKFAVETLICPSELM	0.607
EASNCFAIRHFENKFAVETLICPSGNDGQGFVGV	inactive
EASNCFAIRHFENKFAVETLICPSGSVTVKACMW	inactive
EASNCFAIRHFENKFAVETLICPSILISDLDVDS	-0.0354
EASNCFAIRHFENKFAVETLICPSKGLCS	inactive
EASNCFAIRHFENKFAVETLICPSKTC	inactive
EASNCFAIRHFENKFAVETLICPSKTVDSGVSGV	inactive
EASNCFAIRHFENKFAVETLICPSLDLCYARFLE	inactive
EASNCFAIRHFENKFAVETLICPSLSRNMRGWRR	inactive
EASNCFAIRHFENKFAVETLICPSPTMVDCWRG	inactive
EASNCFAIRHFENKFAVETLICPSRPETDDGGSF	inactive
EASNCFAIRHFENKFAVETLICPSRTRPVGQES	inactive
EASNCFAIRHFENKFAVETLICPSRVMYSNGRGM	0.615
EASNCFAIRHFENKFAVETLICPSSRLLVRMKVR	inactive
EASNCFAIRHFENKFAVETLICPSTCEVRFDVLW	inactive
EASNCFAIRHFENKFAVETLICPSVVAFSDVLLY	inactive

Sequence	amyloid nucleation score
EASNCFAIRHFENKFAVETLICPSVVAWLTSSCR	inactive
EASNCFAIRHFENKFAVETLICPSWALLR	0.91
EASNCFAIRHFENKFAVETLICPSWSEGYFSLHD	inactive
EASNCFAIRHFENKFAVETLICPT	0.649
EASNCFAIRHFENKFAVETLICPTCA	inactive
EASNCFAIRHFENKFAVETLICPTEGRTALGRSG	inactive
EASNCFAIRHFENKFAVETLICPTENRWKARAVL	inactive
EASNCFAIRHFENKFAVETLICPTKYP	inactive
EASNCFAIRHFENKFAVETLICPTLCGT	inactive
EASNCFAIRHFENKFAVETLICPTMRIGRRAVT	inactive
EASNCFAIRHFENKFAVETLICPTRYSIQ	inactive
EASNCFAIRHFENKFAVETLICPTVASVPWRECV	inactive
EASNCFAIRHFENKFAVETLICPTVELVTLVYEG	inactive
EASNCFAIRHFENKFAVETLICPTWLSLRTKFRA	inactive
EASNCFAIRHFENKFAVETLICPVFSVVFDALGG	7.6
EASNCFAIRHFENKFAVETLICPVLICMASHCRC	7.5
EASNCFAIRHFENKFAVETLICPVNGQCSGLMAW	inactive
